Experimental data from PubChem BioAssay AID662 (National Center for Advancing Translational Sciences (NCATS), 2007).
Values joined by “and” are separate entries in the source; they are usually repeats but may differ in a detail not shown here. Equal entries are not always repeated. About 1,800 (2.5%) of roughly 71,000 compounds were called active. The shares of active, inactive and inconclusive entries below differ from those in the screen. The call rests on the fitted dose curve; in most records, active means well fitted activation curve with a large enough effect in the signal ratio, with a control signal flat (not every such curve was filed as active); inconclusive means small, poorly fitted or top-dose-only effect, or effect the other way, or a change in a side signal; inactive means flat fitted curve, though single readings scatter; the % refers to the signal ratio. Where the call is inconclusive, the potency comes from a doubtful curve fit.

Experiment: Cell signaling CRE-BLA (Fsk stim); on activity change, negative = inhibition: % of control where 0% means no effect
Conditions: CHO CRE-bla reporter (cAMP response element driving beta-lactamase), forskolin EC10, beta-lactamase ratio; activity change, negative = inhibition: at 38.2 µM (top of the series) unless noted
Procedure, shortened: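 The 460nm/530nm emission ratio after CCF4 loading defined %Activity, from which AC50 values were obtained. CRE-bla CHO cells received compound dilution series together with an EC10 level of NKH 477 for 3 hours at 37 degrees Celsius.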
Potency means the concentration at half of the fitted maximal effect; tags describe the fitted curve by direction and shape.

| Compound | activity change, negative = inhibition | Potency |
| --- | --- | --- |
| OC(COc1ccc(Cl)cc1)CN1C2=NCCCN2c2ccccc21 (stereo not given) | inconclusive: 29.5% [cytotoxic] |  |
| CCOc1ccccc1NC(=O)N1CCC(NC(=O)c2cccc(C)c2)CC1 | inconclusive: -6.62% |  |
| O=C(c1cnccn1)N1CCC2(CCCN(c3ccccc3)C2)CC1 |  | inactive |
| Cc1cc2cc(C(c3nnnn3CC3CCCO3)N3CCCc4ccccc43)c(=O)[nH]c2cc1C (stereo not given) |  | inconclusive: 12.6 µM [rising, single point] |
| O=C(NCCN1CCOCC1)c1cc(S(=O)(=O)NCCCN2CCCC2=O)ccc1Cl | inconclusive: -20.5% |  |
| CCCOc1nc2c(c(=O)n(C)c(=O)n2C)n1CCC |  | inconclusive: 7.94 µM [rising, partial curve] |
| Cc1cccc2nc(Cn3c(=O)n(CCC(=O)NCc4ccco4)c(=O)c4sccc43)cc(=O)n12 | inconclusive: -9.67% |  |
| Cc1ccc2oc(NC(=O)N3CCOCC3)cc(=O)c2c1 |  | active: 0.316 µM |
| CCOC(=O)c1ccc2c(c1)C1C=CCC1C(C(=O)O)N2 (stereo not given) | inconclusive: -15.1% |  |
| CCNc1nc2c(c(=O)n(Cc3ccccc3)c(=O)n2C)n1Cc1ccccc1 |  | inconclusive: 12.6 µM [rising, single point] |
| N#CCCn1c(=O)c(-c2cc(F)cc(F)c2)nc2cnc(OCc3ccccc3)nc21 |  | inconclusive: 12.6 µM [rising, single point] |
| COc1ccc(-c2nc3cnc(N(C)C)nc3n(C[C@H]3CCCO3)c2=O)cc1 |  | active: 2 µM |
| O=C1c2ccccc2CC1Sc1nnc(-c2ccccn2)o1 (stereo not given) | inconclusive: -27% |  |
| Cc1ccc(C2C=C(c3ccccc3OC(F)F)Nc3ncnn32)cc1 (stereo not given) |  | inconclusive: 0.02 µM [falling, full curve, poor fit] |
| CCOC(=O)c1[nH]c(=O)[nH]c1CSCCO | inconclusive: -16.8% [at 7.6 µM] |  |
| O=C(CSc1nnnn1C1CCCC1)N1CCN(C(=O)c2ccco2)CC1 | inconclusive: -6.67% |  |
| Cc1ccc(S(=O)(=O)c2c(C)nn(C(C)(C)C)c2OC(=O)c2ccco2)cc1 | inconclusive: -20.8% |  |
| CC(C)NC[C@@H](O)COc1cccc2[nH]ccc12 | inconclusive: -7.81% and inconclusive: -15.8% |  |
| N#Cc1ccsc1NC(=O)CSc1ncnc2ccccc12 |  | inconclusive: 3.98 µM [falling, single point] |
| CCCC(C(=O)NCc1ccc(OC)cc1)N(Cc1ccco1)C(=O)c1snc(C(N)=O)c1N (stereo not given) | inconclusive: -4.22% |  |
| CCN=c1sc(C(=O)NCCc2ccccc2)cc(=O)n1CC | inconclusive: 17.3% |  |
| CCOC(=O)CSc1nc2cc(C(=O)NCc3ccco3)ccc2c(=O)n1-c1ccc(F)cc1 |  | inactive |
| COc1ccc2[nH]c(=O)c(CN(C(=O)c3ccncc3)C(C)C)cc2c1 |  | inconclusive: 12.6 µM [rising, single point] |
| CCn1cc(C(=O)O)c(=O)c2cc(F)c(N3CCN(C(=O)Nc4ccccc4)CC3)cc21 |  | inactive |
| COc1ccc(C[C@H](O)CN2CCOCC2)cc1 | inactive: -4.82% [at 7.6 µM] |  |
| CCOC(=O)C1CCN(C(=O)Nc2ccc(NC(=O)C3CCN(C(=O)OCC)CC3)cc2)CC1 |  | inconclusive: 3.16 µM [rising, partial curve] |
| COc1ccc(-c2nc(C#N)c(NCC3CCCO3)o2)cc1 (stereo not given) |  | inactive |

| Compound | activity change, negative = inhibition | Potency |
| --- | --- | --- |
| COC(=O)/C=C(\C)NC(=O)c1cccs1 | inconclusive: 24.1% |  |
| COC(=O)c1ccc(Oc2nc(Nc3ccc(F)cc3)nc(N3CCCC3)n2)cc1 |  | active: 3.16 µM |
| CC(C)n1nc(C(=O)OCC(=O)N(C)C2CCS(=O)(=O)C2)c2ccccc2c1=O (stereo not given) | inconclusive: -3.46% |  |
| CC1Cc2ccccc2N1C(=O)C1CCN(S(=O)(=O)c2cccs2)CC1 (stereo not given) | inconclusive: -6.23% |  |
| Cc1ccccc1Cn1c(=O)n(Cc2ccco2)c(=O)c2ccccc21 |  | inconclusive: 6.31 µM [rising, partial curve] |
| CCOC(=O)c1cc2c3ccccc3n(CC)c2nc1N |  | inactive |
| COc1ccc(C(=O)n2nc(-c3ccco3)nc2SC)cc1OC | inconclusive: -28.2% |  |
| Nn1c(SCC(=O)Nc2ccc(F)cc2F)nnc1C1CCCCC1 |  | inconclusive: 0.316 µM [rising, full curve, poor fit] |
| COc1ccc2c(c1)N(CC[C@H]1CCCCN1C)c1ccccc1S2 | inactive: 16% [at 7.6 µM] |  |
| C=CCNC(=O)c1c(N)n(-c2cccc(S(N)(=O)=O)c2)c2nc3ccccc3nc12 |  | active: 10 µM |
| Cc1ccc2c(c1)NCCO2 |  | inactive |
| CCOC(=O)c1c(CN(CC)CC)oc2cc(Br)c(O)cc12 |  | active: 3.16 µM |
| CCCCC(CC)COC(=O)CCCCC(=O)OCC(CC)CCCC (stereo not given) |  | inactive |
| C=C(C)C1CC=C(C)C(O)C1 (stereo not given) |  | inactive |
| CCOc1ccccc1COC(=O)c1cccc(-n2cnnn2)c1 |  | inconclusive: 10 µM [rising, single point] |
| Cn1c(=O)c2c(nc(N3CCCCCC3)n2CC(=O)c2ccccc2)n(C)c1=O |  | inactive |
| CC(C)[C@H](NC(=O)NCc1ccco1)C(=O)O |  | inactive |
| CNc1cc(-c2ccccc2C)ncn1 |  | inactive |
| Cc1ccc(NS(=O)(=O)c2cccc(C(=O)N3CCOCC3)c2)cc1 |  | inconclusive: 2.51 µM [falling, single point] |
| CCOC(=O)N1CCC(C(N)=O)CC1 | inconclusive: 20.3% |  |
| CCCn1c(=O)c(C(=O)NCc2ccccn2)c(O)c2ccccc21 |  | inconclusive: 6.31 µM [rising, partial curve] |
| COc1ccc(C(=O)N(CN2CCCC2=O)c2nccs2)cc1OC |  | inconclusive: 10 µM [rising, partial curve] |
| CCOC(=O)c1cc(C)[nH]c(=S)c1C#N | inconclusive: 25.4% |  |
| CNC(=O)[C@H](C)/C=C(\c1cccnc1)C(NC(=O)OCc1ccccc1)c1ccc(C(=O)OC)cc1 (stereo not given in full) |  | inactive |
| CC1CN(S(=O)(=O)Cc2ccccc2)CC(C)O1 (stereo not given) | inconclusive: 2.63% |  |
| O=c1cc(-c2ccccc2O)oc2cc(O)cc(O)c12 |  | inconclusive: 31.6 µM [falling, single point] |
| COCc1cc(C)nc2sc(C(=O)OC)c(N)c12 |  | inconclusive: 25.1 µM [rising, single point] |

| Compound | activity change, negative = inhibition | Potency |
| --- | --- | --- |
| CC(=O)N=c1sc(C(C)(C)C)c(C)n1C |  | inactive |
| COc1cccc(Nc2ncc3nc(-c4ccc(Cl)cc4)c(=O)n(C4CC4)c3n2)c1 |  | inconclusive: 2.51 µM [rising, partial curve] |
| COC(=O)[C@@]1(Cc2ccc(OC)cc2)[C@H]2c3cc(C(=O)N4CCCC4)n(CCc4ccc(O)c(OC)c4)c3C[C@H]2CN1C(=O)c1ccccc1 |  | inconclusive: 25.1 µM [rising, single point] |
| O=C(O)COc1cccc(-c2ocnc2-c2nc(-c3ccccc3)c(-c3ccccc3)o2)c1 |  | inconclusive: 3.16 µM [rising, partial curve] |
| Cc1ccc(-c2nnc3c4ccccc4c(C)nn23)cc1NC(=O)c1ccco1 |  | inconclusive: 1 µM [rising, full curve] |
| c1ccc(-n2ncc3c2ncn2nc(CSc4nc5ccccc5s4)nc32)cc1 |  | inconclusive: 12.6 µM [rising, single point] |
| COc1ccc(C(=O)NCCc2nnc(SCc3nc4ccccc4c(=O)[nH]3)n2C)cc1 |  | inactive |
| CNCC[C@H](Oc1ccc(C(F)(F)F)cc1)c1ccccc1 | inconclusive: -16.7% |  |
| O=C(COc1ccccc1O)Nc1ccccc1Cl | inconclusive: -29.1% |  |
| COc1ccc(C2C3=C(CCCC3=O)Nc3nc(SCc4ccccc4)nn32)cc1OC (stereo not given) | inconclusive: 8.9% |  |
| N#CCCn1c(=O)c(-c2cc(F)cc(F)c2)nc2cnc(Oc3cccc(Cl)c3)nc21 |  | active: 10 µM |
| COc1cccc(Nc2ncc3nc(C)c(=O)n(C[C@H]4CCCO4)c3n2)c1 |  | active: 2.51 µM |
| CS(=O)(=O)c1ccc2nc(NC(=O)Cc3ccccc3)sc2c1 |  | inconclusive: 25.1 µM [rising, single point] |
| C/C=C/c1ccc(OCCCCN2C(=O)NC(C)(C)C2=O)c(OC)c1 | inconclusive: 24.7% |  |
| O=c1[nH]n(-c2cccc3cccnc23)c(=O)c2ccccc12 | inconclusive: -3.89% |  |
| COc1ccc(-c2noc(-c3ccccc3C(=O)Nc3cccc(OC)c3)n2)cc1 |  | inactive |
| Cc1ccc(-c2nn(-c3ccccc3)cc2/C=C(\C#N)c2cccc(C#N)c2)o1 | inconclusive: 19.5% |  |
| O=C(OCC(=O)N1CCc2ccccc21)c1ccccc1 |  | inconclusive: 0.1 µM [falling, single point] |
| Cc1nn(-c2ccccc2)c2sc(-c3n[nH]c(=S)o3)cc12 |  | active: 5.01 µM |
| O=C(O)C1C2C=CC(C2)C1C(=O)NCc1ccccn1 (stereo not given) |  | inactive |
| COC(=O)CN1C(=O)CC(C)(C)S(=O)c2ccccc21 (stereo not given) |  | inactive |
| O=C(C1CCCCC1)N1CCCC(c2nc3c(nnn3Cc3ccccc3)c(=O)[nH]2)C1 (stereo not given) | inconclusive: 24.1% |  |
| COC(=O)c1cc2nc(-c3ccccc3)cc(C)n2n1 |  | inconclusive: 10 µM [rising, partial curve] |
| COc1nc(Nc2cccc(C)c2)nc(N2CCCCC2)n1 |  | inconclusive: 12.6 µM [rising, single point] |
| CC(C)C[C@@H](CC(=O)N[C@@H](CCC(=O)O)CC(=O)O)NC(=O)[C@@H]1CNCC[C@H]1NC(=O)C[C@@H](NC(=O)C[C@H](Cc1ccccc1)NC(=O)[C@@H]1CNCC[C@H]1N)C(C)C |  | inactive |
| O=C(CCCn1c(=O)[nH]c2ccsc2c1=O)N1CCN(c2ccccn2)CC1 | inconclusive: -1.37% |  |
